The text below walks through data of publication PMC11513981.

Protein sequences, listed by entry. Tags and fused reporters are not part of them. Lines headed by an entry give the natural chain unless they say otherwise; changes in a name come on top. Chains listed by the source or under a name are the forms on record and can include a tag or linker.
UniProt P30530: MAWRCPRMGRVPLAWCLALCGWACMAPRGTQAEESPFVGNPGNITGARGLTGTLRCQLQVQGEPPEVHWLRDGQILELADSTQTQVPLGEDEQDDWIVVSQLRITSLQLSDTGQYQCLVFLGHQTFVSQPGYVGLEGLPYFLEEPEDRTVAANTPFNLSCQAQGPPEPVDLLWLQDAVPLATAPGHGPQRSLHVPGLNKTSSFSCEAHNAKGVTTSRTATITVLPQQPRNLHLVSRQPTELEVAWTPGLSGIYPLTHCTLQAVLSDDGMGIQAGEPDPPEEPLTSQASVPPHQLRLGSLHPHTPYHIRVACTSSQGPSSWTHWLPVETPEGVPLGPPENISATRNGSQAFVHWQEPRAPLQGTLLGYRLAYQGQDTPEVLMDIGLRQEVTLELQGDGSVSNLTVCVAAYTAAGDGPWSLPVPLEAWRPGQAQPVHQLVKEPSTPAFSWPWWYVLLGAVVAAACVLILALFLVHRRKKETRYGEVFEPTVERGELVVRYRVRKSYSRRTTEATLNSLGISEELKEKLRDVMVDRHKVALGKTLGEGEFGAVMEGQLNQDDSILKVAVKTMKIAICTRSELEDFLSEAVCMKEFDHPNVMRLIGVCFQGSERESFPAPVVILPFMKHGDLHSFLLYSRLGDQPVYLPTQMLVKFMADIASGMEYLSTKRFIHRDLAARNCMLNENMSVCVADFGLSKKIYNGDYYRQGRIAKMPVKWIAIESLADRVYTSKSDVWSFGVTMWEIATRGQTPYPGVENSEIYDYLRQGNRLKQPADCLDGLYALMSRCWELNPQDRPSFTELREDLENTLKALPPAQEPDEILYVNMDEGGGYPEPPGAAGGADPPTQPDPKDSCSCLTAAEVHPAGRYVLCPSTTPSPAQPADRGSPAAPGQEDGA
Axl-HA D91A (P30530, form named): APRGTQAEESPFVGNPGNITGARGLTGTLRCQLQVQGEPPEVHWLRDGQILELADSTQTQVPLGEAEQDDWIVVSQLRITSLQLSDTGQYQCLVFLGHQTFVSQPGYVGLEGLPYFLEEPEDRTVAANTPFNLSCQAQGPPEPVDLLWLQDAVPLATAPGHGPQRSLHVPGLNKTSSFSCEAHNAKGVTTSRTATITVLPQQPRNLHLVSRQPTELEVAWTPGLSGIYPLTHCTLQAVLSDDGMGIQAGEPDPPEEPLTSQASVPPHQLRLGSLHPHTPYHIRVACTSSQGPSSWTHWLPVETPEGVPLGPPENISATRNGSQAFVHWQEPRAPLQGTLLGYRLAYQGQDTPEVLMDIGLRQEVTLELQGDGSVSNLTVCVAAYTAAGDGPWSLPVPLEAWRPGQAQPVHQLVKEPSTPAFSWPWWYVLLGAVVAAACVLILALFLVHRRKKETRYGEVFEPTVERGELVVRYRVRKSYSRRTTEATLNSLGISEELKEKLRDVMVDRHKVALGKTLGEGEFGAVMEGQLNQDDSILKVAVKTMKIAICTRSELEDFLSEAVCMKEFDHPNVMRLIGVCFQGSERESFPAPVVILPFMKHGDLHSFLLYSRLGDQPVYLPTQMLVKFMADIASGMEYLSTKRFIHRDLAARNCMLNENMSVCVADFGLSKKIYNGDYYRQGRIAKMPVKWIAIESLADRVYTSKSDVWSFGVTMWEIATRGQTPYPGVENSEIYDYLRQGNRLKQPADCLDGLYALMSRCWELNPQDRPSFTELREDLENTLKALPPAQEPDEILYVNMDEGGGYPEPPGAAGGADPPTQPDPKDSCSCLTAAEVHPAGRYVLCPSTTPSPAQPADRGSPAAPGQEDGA
Axl-HA E90A (P30530, form named): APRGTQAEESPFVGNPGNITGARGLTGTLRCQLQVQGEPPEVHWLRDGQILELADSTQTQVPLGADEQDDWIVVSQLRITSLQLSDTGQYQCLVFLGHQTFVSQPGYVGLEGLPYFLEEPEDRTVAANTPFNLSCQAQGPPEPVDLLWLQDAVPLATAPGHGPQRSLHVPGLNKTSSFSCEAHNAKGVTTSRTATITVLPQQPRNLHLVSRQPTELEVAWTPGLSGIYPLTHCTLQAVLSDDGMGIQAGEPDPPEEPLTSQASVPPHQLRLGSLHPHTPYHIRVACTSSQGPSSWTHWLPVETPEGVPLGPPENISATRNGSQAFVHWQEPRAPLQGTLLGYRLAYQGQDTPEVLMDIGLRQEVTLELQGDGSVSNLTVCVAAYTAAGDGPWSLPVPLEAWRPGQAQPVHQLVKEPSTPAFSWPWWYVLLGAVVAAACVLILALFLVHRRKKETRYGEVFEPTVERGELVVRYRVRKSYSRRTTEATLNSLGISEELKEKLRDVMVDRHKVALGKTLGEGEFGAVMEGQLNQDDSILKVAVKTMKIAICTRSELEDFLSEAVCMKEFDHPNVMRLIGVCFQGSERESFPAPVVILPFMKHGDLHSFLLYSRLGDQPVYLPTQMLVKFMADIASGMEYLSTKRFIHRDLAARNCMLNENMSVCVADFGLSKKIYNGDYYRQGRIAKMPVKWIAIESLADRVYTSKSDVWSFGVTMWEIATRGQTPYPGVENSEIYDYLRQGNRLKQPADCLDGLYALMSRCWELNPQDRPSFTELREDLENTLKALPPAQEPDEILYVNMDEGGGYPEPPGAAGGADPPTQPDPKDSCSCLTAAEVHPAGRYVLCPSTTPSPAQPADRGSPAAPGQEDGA
Axl-HA E167A (P30530, form named): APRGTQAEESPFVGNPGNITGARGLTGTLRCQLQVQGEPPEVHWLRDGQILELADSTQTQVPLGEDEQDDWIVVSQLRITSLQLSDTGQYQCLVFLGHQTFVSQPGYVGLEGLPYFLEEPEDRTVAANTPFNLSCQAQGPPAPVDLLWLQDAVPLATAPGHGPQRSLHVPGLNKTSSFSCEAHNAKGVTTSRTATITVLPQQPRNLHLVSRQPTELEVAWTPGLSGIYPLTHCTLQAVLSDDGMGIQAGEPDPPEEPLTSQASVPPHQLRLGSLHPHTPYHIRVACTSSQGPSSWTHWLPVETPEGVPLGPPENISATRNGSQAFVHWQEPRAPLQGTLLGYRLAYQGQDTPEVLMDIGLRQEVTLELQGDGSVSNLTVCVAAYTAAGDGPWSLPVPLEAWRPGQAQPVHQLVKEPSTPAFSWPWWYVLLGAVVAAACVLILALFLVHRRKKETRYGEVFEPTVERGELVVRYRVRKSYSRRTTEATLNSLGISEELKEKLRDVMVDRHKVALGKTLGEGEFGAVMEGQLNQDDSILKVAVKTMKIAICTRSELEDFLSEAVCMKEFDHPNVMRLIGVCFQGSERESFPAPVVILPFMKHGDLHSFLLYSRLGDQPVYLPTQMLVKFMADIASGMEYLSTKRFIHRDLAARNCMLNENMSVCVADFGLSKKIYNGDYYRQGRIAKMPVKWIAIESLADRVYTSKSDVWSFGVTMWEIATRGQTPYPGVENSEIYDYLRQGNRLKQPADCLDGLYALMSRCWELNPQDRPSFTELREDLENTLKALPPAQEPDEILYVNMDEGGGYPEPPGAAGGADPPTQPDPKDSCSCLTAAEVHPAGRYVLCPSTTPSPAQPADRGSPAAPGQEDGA
Axl-HA N43A (P30530, form named): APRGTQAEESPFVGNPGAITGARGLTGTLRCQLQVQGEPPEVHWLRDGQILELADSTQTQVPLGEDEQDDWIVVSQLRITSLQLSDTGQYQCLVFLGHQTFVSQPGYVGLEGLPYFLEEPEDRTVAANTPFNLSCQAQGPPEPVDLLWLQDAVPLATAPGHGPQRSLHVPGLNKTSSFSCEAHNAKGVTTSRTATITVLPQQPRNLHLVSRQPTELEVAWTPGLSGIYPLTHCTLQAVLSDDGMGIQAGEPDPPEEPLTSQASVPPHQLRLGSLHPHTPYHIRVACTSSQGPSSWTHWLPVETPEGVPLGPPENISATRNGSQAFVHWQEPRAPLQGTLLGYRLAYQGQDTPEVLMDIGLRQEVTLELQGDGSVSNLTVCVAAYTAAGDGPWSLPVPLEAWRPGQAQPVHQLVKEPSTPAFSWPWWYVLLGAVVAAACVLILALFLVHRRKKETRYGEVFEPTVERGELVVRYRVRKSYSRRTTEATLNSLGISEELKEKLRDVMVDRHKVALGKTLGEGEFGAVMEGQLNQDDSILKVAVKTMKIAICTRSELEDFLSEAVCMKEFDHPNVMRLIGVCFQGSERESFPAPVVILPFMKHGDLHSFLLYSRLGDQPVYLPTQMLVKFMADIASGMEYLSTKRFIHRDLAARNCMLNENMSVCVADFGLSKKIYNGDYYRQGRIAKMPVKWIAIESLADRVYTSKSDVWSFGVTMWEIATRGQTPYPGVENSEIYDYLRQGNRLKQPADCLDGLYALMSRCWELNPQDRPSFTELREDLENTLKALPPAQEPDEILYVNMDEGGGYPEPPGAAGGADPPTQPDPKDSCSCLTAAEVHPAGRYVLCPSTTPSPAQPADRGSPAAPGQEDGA
Axl-HA R55A (P30530, form named): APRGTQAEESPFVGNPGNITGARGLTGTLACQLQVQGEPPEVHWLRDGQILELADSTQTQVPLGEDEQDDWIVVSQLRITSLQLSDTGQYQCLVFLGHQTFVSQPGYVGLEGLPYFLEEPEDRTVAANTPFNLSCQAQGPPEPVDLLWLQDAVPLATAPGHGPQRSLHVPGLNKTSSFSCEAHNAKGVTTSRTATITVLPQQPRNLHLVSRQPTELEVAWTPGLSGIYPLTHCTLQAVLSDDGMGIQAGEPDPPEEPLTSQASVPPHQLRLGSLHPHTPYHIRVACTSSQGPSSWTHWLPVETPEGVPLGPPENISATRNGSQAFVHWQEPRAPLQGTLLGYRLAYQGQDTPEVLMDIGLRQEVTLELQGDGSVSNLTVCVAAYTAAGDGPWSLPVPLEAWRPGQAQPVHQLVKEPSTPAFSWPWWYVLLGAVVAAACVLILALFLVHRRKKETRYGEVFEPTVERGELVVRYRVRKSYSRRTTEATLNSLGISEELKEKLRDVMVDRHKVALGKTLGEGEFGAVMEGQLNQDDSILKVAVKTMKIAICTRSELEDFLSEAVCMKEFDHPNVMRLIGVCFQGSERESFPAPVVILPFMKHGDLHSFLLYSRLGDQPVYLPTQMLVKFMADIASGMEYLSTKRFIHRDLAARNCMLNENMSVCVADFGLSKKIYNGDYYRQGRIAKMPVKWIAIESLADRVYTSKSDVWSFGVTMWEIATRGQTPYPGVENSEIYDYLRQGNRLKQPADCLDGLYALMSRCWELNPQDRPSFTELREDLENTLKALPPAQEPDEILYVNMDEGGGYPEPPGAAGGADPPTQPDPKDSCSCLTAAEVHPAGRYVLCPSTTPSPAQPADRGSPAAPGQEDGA
Axl-HA R190A (P30530, form named): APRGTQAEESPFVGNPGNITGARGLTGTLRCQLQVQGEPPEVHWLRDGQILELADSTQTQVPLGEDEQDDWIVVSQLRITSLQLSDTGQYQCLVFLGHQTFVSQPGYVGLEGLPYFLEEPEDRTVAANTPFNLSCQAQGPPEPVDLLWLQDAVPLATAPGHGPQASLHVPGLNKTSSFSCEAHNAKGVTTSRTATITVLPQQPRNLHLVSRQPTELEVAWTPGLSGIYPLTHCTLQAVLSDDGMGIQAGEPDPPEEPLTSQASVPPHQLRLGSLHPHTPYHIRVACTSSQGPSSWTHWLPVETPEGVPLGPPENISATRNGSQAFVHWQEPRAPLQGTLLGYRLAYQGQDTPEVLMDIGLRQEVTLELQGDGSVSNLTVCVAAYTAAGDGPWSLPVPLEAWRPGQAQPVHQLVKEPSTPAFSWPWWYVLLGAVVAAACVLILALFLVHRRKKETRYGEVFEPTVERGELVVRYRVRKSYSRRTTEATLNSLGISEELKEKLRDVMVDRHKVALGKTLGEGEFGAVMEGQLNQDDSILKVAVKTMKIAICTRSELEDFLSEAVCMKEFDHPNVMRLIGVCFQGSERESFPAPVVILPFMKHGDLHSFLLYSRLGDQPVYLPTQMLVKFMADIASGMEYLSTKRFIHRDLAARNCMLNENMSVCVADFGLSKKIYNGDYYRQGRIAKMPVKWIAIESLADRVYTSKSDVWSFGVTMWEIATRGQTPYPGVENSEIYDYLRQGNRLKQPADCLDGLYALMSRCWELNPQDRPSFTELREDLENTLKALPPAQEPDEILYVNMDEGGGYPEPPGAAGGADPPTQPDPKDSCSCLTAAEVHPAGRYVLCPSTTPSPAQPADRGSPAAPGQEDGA

These are yes or no findings as the source states them, for the method shown. For some of these results: In cells and extracts the contact can be indirect. Some entries that bind do so weakly or less than the wild type. For some of these results: Sequences can lack the tags named with a protein.

Test [1] concerns the target T1, CD73 (human (endogenous in A549 and H226)) (UniProt P21589).
T1 sequence: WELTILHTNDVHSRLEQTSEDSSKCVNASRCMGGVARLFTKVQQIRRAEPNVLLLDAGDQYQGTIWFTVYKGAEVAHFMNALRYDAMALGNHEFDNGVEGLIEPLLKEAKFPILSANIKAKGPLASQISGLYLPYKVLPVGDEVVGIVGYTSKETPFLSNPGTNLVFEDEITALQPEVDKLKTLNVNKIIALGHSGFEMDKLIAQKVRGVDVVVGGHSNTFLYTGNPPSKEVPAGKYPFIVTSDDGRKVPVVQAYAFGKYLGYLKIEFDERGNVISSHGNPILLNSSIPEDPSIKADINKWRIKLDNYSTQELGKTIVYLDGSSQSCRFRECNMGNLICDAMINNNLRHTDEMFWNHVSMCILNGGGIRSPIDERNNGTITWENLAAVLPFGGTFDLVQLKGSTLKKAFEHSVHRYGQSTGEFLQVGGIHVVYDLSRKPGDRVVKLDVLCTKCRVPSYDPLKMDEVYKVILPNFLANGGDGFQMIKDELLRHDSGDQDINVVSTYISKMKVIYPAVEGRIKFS
As to the kind of experiment: co-IP; endogenous proteins in A549 and H226 cell lysates; IgG-, Axl- or CD73-bound proteins resolved by SDS-PAGE and western blot. Background: A western blot detects proteins with antibodies after separation by electrophoresis.

A further test concerns the target T2, Flag-tagged CD73 (human) (UniProt P21589).
T2 sequence: T1 sequence
As to the kind of experiment: co-IP; HA-tagged Axl (WT or point mutants) and Flag-tagged CD73 coexpressed in HEK293T cells; anti-FLAG agarose; western blot.

The target of the next test is T3, GST-CD73 (UniProt P21589).
T3 sequence: T1 sequence
As to the kind of experiment: pull-down; 5 μg GST-vector or GST-CD73 added into cell lysates, Glutathione-Sepharose 4B beads overnight at 4 °C; SDS-PAGE and western blot; proteins from an E. coli system; only the target purified.

Test [2] deals with T4, human CD73 (novoprotein, Cat:C446) (human) (UniProt P21589).
T4 sequence: T1 sequence
As to the kind of experiment: SPR; Biacore T200; CD73 (20 μg/ml, 10 mM sodium acetate pH 4.5) immobilised on a CM5 chip; Axl Fc Chimera at different concentrations flowed at 30 μl/min for 5 min; 10 mM HEPES, 150 mM NaCl, 1 mM MnCl2, 0.05% Tween 20; both purified. (In general: SPR reads the build-up and loss of mass on a sensor chip optically.)

For the substance “Axl (from UniProt P30530 26-894) (receptor)”, the binding entry in test [1] is listed as “binds”. Take “Axl-HA D91A (from UniProt P30530 26-894) (receptor)”: the binding entry with Flag-tagged CD73 (human) is “no binding”.

As for “Axl-HA E90A (from UniProt P30530 26-894) (receptor)”, in the test with Flag-tagged CD73 (human), the binding result is on record as “no binding”. Consider “Axl-HA E167A (from UniProt P30530 26-894) (receptor)”, for which, in the test with Flag-tagged CD73 (human), the binding entry is reported as “no binding”. The same measure, in the same setting: the entry for “Axl-HA N43A (from UniProt P30530 26-894) (receptor)” is “no binding”; for “Axl-HA R55A (from UniProt P30530 26-894) (receptor)” it is “no binding”; for “Axl-HA R190A (from UniProt P30530 26-894) (receptor)” it is “no binding”. The same measure, in the same setting: with “HA-tagged Axl (WT, full-length Axl) (from UniProt P30530 26-894) (receptor)” the entry was “binds”. As to “His-Axl-N (extracellular domain of Axl) (from UniProt P30530 26-451) (domain or fragment)”, the binding entry with GST-CD73 is reported as “binds”.

As for “human Axl Fc Chimera (R&D, Cat:154-AL) (from UniProt P30530 26-451) (Fc fusion)”, the binding result in test [2] was “binds”.
